The supplement of paper PMC3334620
In all, about 33,000 sequences were measured (“E-score (-0.5 to 0.5)”: median about -0.012, highest 2% from about 0.27 on). The list shows a part of the results.

Each sequence was assayed against T1, Vhr1 (UniProt P40522) (assay: PBM E-score (8-mer binding enrichment) (E-score (-0.5 to 0.5)); higher = stronger / more preferred TF binding; most listed sequences are background and not binding sites). Conditions: protein concentration: 200 nM; construct: GST-full length.
T1 sequence: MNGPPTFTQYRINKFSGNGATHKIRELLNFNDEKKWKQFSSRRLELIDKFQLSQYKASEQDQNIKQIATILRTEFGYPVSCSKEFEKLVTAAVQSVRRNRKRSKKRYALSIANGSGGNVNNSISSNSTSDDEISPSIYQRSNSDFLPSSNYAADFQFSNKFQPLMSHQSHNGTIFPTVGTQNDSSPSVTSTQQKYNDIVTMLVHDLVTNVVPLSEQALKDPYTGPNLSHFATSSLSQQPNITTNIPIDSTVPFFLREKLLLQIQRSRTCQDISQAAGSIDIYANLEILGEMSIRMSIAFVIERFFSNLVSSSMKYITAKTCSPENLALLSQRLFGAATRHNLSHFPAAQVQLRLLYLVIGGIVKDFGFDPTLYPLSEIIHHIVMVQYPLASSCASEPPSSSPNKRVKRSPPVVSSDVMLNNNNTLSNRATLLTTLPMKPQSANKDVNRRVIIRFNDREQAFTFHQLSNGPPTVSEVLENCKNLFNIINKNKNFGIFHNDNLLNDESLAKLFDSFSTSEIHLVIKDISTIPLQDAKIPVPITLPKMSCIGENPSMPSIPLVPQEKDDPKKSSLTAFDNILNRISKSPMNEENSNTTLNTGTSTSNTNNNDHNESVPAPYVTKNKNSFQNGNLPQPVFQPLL
Experimental: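 Universal 'all 10-mer' protein binding microarrays (Agilent AMADID 015681) probed with GST-tagged S. cerevisiae TFs (full-length or DBD) made by in vitro transcription/translation (PURExpress), about 100-200 nM. Bound TF was detected with fluorescent anti-GST. Each ungapped 8-mer (which stands for itself and its reverse complement) is scored by the PBM enrichment score (E-score), a modified Wilcoxon-Mann-Whitney statistic from -0.5 to +0.5, computed with the Universal PBM Analysis Suite. Scale: above 0.35 generally sequence-specific binding.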

Sequence	PBM E-score
TATAGGCA	-0.118
TAGTTGAA	0.134
TCACGCCA	0.0671
GTCCAAGA	-0.199
AATAATAA	0.119
ACCGTCCT	-0.163
AAATTGGA	-0.0529
ACCAGGTA	0.0155
AACGATTG	-0.0379
AGGTAGTG	0.0605
CCTTGGAG	-0.0367
ACGGTTAT	0.0184
CAATGAGA	-0.0377
CACACGTA	0.0479
CCGTTGCG	-0.0773
CGGAGGGA	-0.206
GAGAAACA	0.0292
GAGTGTGA	0.278
CGGCCAAC	0.0556
ATCCCTAA	-0.332
GCAGCGGC	-0.016
AAAGCCGC	-0.27

Sequence	PBM E-score
TCTAGAGA	-0.331
CGTATTAG	0.0481
AAAAGGTT	-0.287
ATTCATCC	0.0498
AGATAGTC	0.109
CCATAATA	0.213
CCCTGAGG	-0.219
CAGTGATC	0.215
CGTGACCC	0.141
AGTGGCCG	-0.0641
CCCATCGC	0.237
GTTTCTTA	-0.142
GAATTACA	-0.0583
GCGGGAAA	-0.0475
ATGTCGGA	0.135
GGCTGAAA	0.00046
CTCTCGCC	-0.261
AGATCGAA	-0.117
AGGAACCT	-0.0548
ATGTTATA	0.0385
ATAGGCAA	-0.246
ACTCGCTC	0.282

Sequence	PBM E-score
GACTGTGA	0.0963
AGCCCATA	0.03
CTAGATGC	0.00921
AGGATTCC	0.0112
GGCCGCCA	-0.0508
CCATCTCC	0.0056
AGCTCTTA	-0.234
CCGCGTTA	0.112
ATCCAGTG	0.202
GCGCTCGA	0.0188
TAATTCTA	0.0838
CTCCTGGA	-0.208
GCCGGACA	0.0608
ACGTCGGG	-0.102
GATTAGGA	-0.114
CTCAGGAA	-0.112
AGTTTAAG	-0.237
CTGAGACA	0.211
TTAAGCAA	-0.135
ACGAGGGA	0.108
CGCAAAGC	-0.241
CTCCGAAA	-0.13

Sequence	PBM E-score
GAGATGGA	0.00474
CAAGAACA	-0.00753
ATCTCCGC	0.126
GGTATGTA	0.173
CCACTTGC	-0.0135
ACCCATCT	0.171
CGACTCGA	0.21
AAATGAAA	0.0444
AGGCTTAA	-0.269
CGTCGGAA	-0.137
AGGTATTA	-0.0614
ACTACTAG	0.156
GCTTGCCA	-0.165
AGCGCGCT	0.0999
TCGGCGAA	-0.0431
ACTCTAAA	0.08
CTGAAGTC	-0.0789
CATAATCG	0.0927
ATTAAGTC	-0.138
CTACCGCA	-0.0392
